Data published in the RNAGym collection of RNA variant scans (doi:10.1073/pnas.2313332121).
This sample is rich in variants without activity.

B1: TPR 5TU (parent)
chain: GGAUCUUCUCGAUCUAACAAAAAAGACAAAUCUGCCACAAAGCUUGAGAGCAUCUUCGGAUGCAGAGGCGGCAGCCUUCGGUGGCGCGAUAGCGCCAACGUUCUCAACUAUGACACGCAAAACGCGUGCUCCGUUGAAUGGAGUUUAUCAUG

Variants of: B1
Experiment: polymerase ribozyme fitness, log enrichment relative to wild type (log ratio); higher = more active; in vitro selection for triplet polymerase activity
Method in brief: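 A heterodimeric triplet polymerase ribozyme had each of its subunits mutagenized by PCR into a library, which was transcribed. One round of in vitro selection, done in triplicate, annealed each library with a biotinylated primer, its partner subunit and triplets, then incubated it frozen at −7 °C before gel excision of extended constructs, streptavidin-bead capture and RT-PCR. Fitness is the logarithm of genotype enrichment relative to wild-type enrichment, based on Illumina sequencing of inputs and outputs and inverse-variance-weighted replicate averages. A base-2 logarithm is used, and genotypes were kept only with ≥10 input reads and ≥1 read per output.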

Point of comparison: GGAUCUUCUAGAUCUAACAAAAAAGACAAAGCUGGCACAAACCUUGAGAGCAUCUUCGGAUGCAGAGGUGGCAGCCUUCGGUGGCGCGAUAACGGCAACAUUCUCAACUAUGACACGCAAAACGCGUGCUCCGUUGAAUGGAAUUUAUCAUG [C10A U31G C35G G42C C69U G92A C95G G100A G143A], “polymerase ribozyme fitness (log ratio)” value -3.74. Against it:
- GGAUCUUCUGGAUCUUACAAAAAAGACAAAUCUGCCACAAAGCUUGAGCGGUUCUACGGAUGCAGAGGCGGCAGCCUUCGGUGGCGCGAUAGCGCCAACGUUGUCAACUAUGACACGCAAAACGCGUGCUCCGUUGAAUGGAGUUAAUCAUG [C10G A16U A49C C51G A52U U56A C103G U146A] — lower, ≤ -4.2
- GGAUCUUCUAGAUCUAACAAAAAAGACAAAUCUGCCACAAAGCUUGAGAGCAUCUUCGGAUGCAGAGGCGGCAGCCUUCGCAGGCGCGAUAGCGCCAGCGUUCUCAACUAUGACACGCAAAACGCGUGCUCCGUUGAAUGGAGUUUGUCAUG [C10A G81C U82A A98G A147G] — lower, ≤ -4.2
- GGAUCUUCUAGAUCUAACAAAAAAGACAAAUCUGCCACAAAGCUUGAGAGCAUCUUCGGAUGCAGAGGCGGCAGCCUUCGGUGGCACGAUAGCGCCAACGUUCUCAACUAUGACACGCAAAACGCGUGCUCCGUUGAAUGGAGUUUAUCCUG [C10A G86A A150C] — lower, ≤ -4.2
- GGAUCUUCUAGAUCAAACAAAAAAGACAAAUCUGCCACAAAGCUUGAGAGCAUCUUCCGAUGCAGAGGCGGCGGCCUUCGGUGGCGCGAUAGCGCGAACGUUCUCAACUAUGACACGCAAAACGCGUGCUCCGUUGUAUGGAGUUUAUCAUG [C10A U15A G58C A73G C96G A137U] — lower, ≤ -4.2
- GGAUCUUCUAGAUCUAACAAAAAAGACAAAUCUGCCACAAAGCUUGAGAGCAUCAUCGGAUGCAGAGGCGGCAGCCUUCGGUGGCGAGAUAGCGCCAACGUUCUCAACUAUGACACGCAAAACGCGUGCUCCGUUGAAUGGAGUUUAUCAUG [C10A U55A C87A] — lower, ≤ -4.2
- GGAUCUUCUAGAUCUAACAAAAAAGACAAAUCUGCCACAAAGCUUGAGAGCAUCUUCGGAUGCAGAGGCGGCAGCCUUCGGUGGCGCGAUAGCGCCAACGUGCUCAACUAUGACACGCAAAACGCGUGCUCCGUUGAAUGGAGUUUAUCAUG [C10A U102G] — lower, ≤ -4.2
- GGAUCUUCUAGAUCUAACAAAAAAGACAAAUCUGCCACAAAGCUAGAGAGCAUUUUCGGAUGAAGAGGCGGAAGCCUUCGGUGGCGCGAUAGAGCCAACGUUCUCAACUAUCACACGCAAAACGCGUGCUCCGUUGAAUGGAGUUUAUCAUG [C10A U45A C54U C63A C72A C93A G112C] — lower, ≤ -4.2
- GGAUCUUCUAGAACUAACCAAAAAGAUAAAUCUGCCAUAAAGCUUGAGAGCAUCUUCGGAUGCAGAGGCGGCAGCCUUCGGUAGCGCGAUAGCGCCAACGUUCUGAACUAUGACACGCAAAACGCGUGCUCCGUUGAAUGGAGUUUAUCAUG [C10A U13A A19C C27U C38U G83A C105G] — lower, ≤ -4.2
- GGAUCUUCUAGAUCUAACAAAAAAGACAAAUCGGCCACAAAGCUUGAGAGCAGCUACAGAUGCAGAGGCGGCAGCCUUCGGUGGCGCGAUAGCGCUAAAGUUCUCAACUAUGACACGCAAAACGCGUGCUCCGUUGAAUGGAGUUUAUCAUG [C10A U33G U53G U56A G58A C96U C99A] — lower, ≤ -4.2
- GGAUCUUCUGGAUCUAACAGAAAAGACAAAUCUGCCACAAAGCUUGAGAGCAUCAUCGGAUGCAGAGGCGGCAGCCUUCUGUGGGGCGAUAGCGCCAACGUUCUCAACUAUGACAUGCAAAACGCGUGCACCGUUGAAUGGAGUUUAUCAUA [C10G A20G U55A G80U C85G C116U U130A G152A] — lower, ≤ -4.2
- GGAUCUUCUGGAUCUAACAAUAAAGACAAAUCUGCCACAAAGCUUGUGAGCAUCUUCGGAUGCAGAGGCGGCAGCCUUCGGUGGCGAGAUAGCGCCAACGUUCUCAACUAUGACACGCAAAUCGCGUAAUCCUUUGAAUGGAGUUUAUCAUG [C10G A21U A47U C87A A122U G128A C129A G133U] — lower, ≤ -4.2
- GGAUCUUCUAGAACUAACAAAAAAGACAAAUCUGCCACAAAGCUUGAGAGCAACUUCGGAUGCAGAGGCGGCAGCCUUCGGUGGCGCGAUAGCGCCAACGUUCUCAACUAUGACACGCAAAACGCGUGCUCCGUUGAAUGGAGAUUAUCAUG [C10A U13A U53A U144A] — lower, ≤ -4.2
- GGAUCUUCUGGAUCUAACUAAAAAGACAAAUCUGCCACAAAGCUUGAGAGCAUCUUCGCAUGCAGAGGCGGCAGCCUUCGGUGGCGCGAUAUCGCCAACGUUCUCAACUAUGACACGCAGAACGCGUGCUCCGUGGAAUGGAGUUUAUGAUG [C10G A19U G59C G92U A120G U135G C149G] — lower, ≤ -4.2
- GGAUCUUCUAGAUCUAACAAAAAAGACAAACCUGCCACAAAGCUUGAGAGCAUCUUCGGAUGCAGAGGCGGCAGCCUUCGGUGGCGCGAUAGCGCCAACGUUCUCAAUUAUGACACGCAAAACGCGUGCUCCGUUGCAUAGAGUUUAACAUG [C10A U31C C108U A137C G140A U148A] — lower, ≤ -4.2
- GGAUCUUCUAGAUCUAACAAAAAAGACAAAUCUGCCACAAAGCUUGAGAGCAACUUCGGAUGCAGAGGCGCCAGCCUUCGGUGGCGCGAUAGCGCCAACGUUCUCAACUAUGACACGCAAAACGCGUGCUCCGUUGAAUGGAGUUUAUCAUG [C10A U53A G71C] — lower, ≤ -4.2
- GGAUCUUCUAGAUCUAACAAAAAAGACAAAUCUGCCACAAAGCUUGAGACCAUCUUCGGAUGCAGAGGCGGCAGCCUUCGGUGGAGCGAUAGCGCCAACGUUCUCAACUAUGACUCGUAAAACGCGUGCUCCGUUGAAUGGAGUUUAUCAUG [C10A G50C C85A A115U C118U] — lower, ≤ -4.2
- GGAUCUUCUGGAUCUAACGAAAAAGACAAAUCUACCACAAAGCUUGAGAGCCUGUUCGGAUGCAGAGGCGGCAGCCUUCGGUGGCGCGAUAGCGCCAACGUUCUCAACUAUGACACGCAAAACGCGUGCUCCGUUGAAUGGAGUUUAUCAUG [C10G A19G G34A A52C C54G] — lower, ≤ -4.2
- GGAUCUUCUGGAUCUAACACAAAAGACAAAUCUGCCACAAAGCAUGAGAGCAUCUUCGGAUGCAGAGGCGGCAGCCAUCGGUGGCGCGAUAGCUCCAACGUUCUCAUCUAUGACACGCAAAACGCGUGCUCCGUUGAAUGGAGUUUAUCAUG [C10G A20C U44A U77A G94U A107U] — lower, ≤ -4.2
